# According to article PMC9911399, “Two distinct binding modes provide the RNA-binding protein RbFox with extraordinary sequence specificity”:
# Changes are numbered by the printed parent chain; changes in the protein carry UniProt numbers. This is one part of the list.
# T1: RBFOX1 RRM (Homo sapiens, UniProt Q9NWB1 109-208)
# T1 sequence: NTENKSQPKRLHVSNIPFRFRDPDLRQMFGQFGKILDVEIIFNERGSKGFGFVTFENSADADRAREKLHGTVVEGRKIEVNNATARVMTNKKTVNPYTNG
# B1: GAGCACU (DNA:RNA)
# RNA: GGGAGACCGGAAUUCAGAUUGUCCGAGCACUUUAAAUCCCGUCGUAGCCACCA
# DNA 1: CAATCTGAATTCCGGTCTCCC
# DNA 2: TGGTGGCTACGACGGGATT
# B2: CAGGCAG (DNA:RNA)
# RNA: B1 RNA with G25C, C28G, A29C, C30A, U31G
# DNA 1: CAATCTGAATTCCGGTCTCCC
# DNA 2: TGGTGGCTACGACGGGATT
# B3: CCUUUUG (DNA:RNA)
# RNA: GGGAGACCGGAAUUCAGAUUGUCCCCUUUUGUUAAAUCCCGUCGUAGCCACCA
# DNA 1: CAATCTGAATTCCGGTCTCCC
# DNA 2: TGGTGGCTACGACGGGATT
# B4: GGACACA (DNA:RNA)
# RNA: B1 RNA with A26G, G27A, U31A
# DNA 1: CAATCTGAATTCCGGTCTCCC
# DNA 2: TGGTGGCTACGACGGGATT
# B5: UCCAGUC (DNA:RNA)
# RNA: B3 RNA with C25U, U27C, U28A, U29G, G31C
# DNA 1: CAATCTGAATTCCGGTCTCCC
# DNA 2: TGGTGGCTACGACGGGATT
# B6: UCACUGG (DNA:RNA)
# RNA: B3 RNA with C25U, U27A, U28C, U30G
# DNA 1: CAATCTGAATTCCGGTCTCCC
# DNA 2: TGGTGGCTACGACGGGATT
# B7: AAAAUGA (DNA:RNA)
# RNA: B3 RNA with C25A, C26A, U27A, U28A, U30G, G31A
# DNA 1: CAATCTGAATTCCGGTCTCCC
# DNA 2: TGGTGGCTACGACGGGATT
# B8: UGCAUAG (DNA:RNA)
# RNA: B3 RNA with C25U, C26G, U27C, U28A, U30A
# DNA 1: CAATCTGAATTCCGGTCTCCC
# DNA 2: TGGTGGCTACGACGGGATT
# B9: AAUAUAC (DNA:RNA)
# RNA: B3 RNA with C25A, C26A, U28A, U30A, G31C
# DNA 1: CAATCTGAATTCCGGTCTCCC
# DNA 2: TGGTGGCTACGACGGGATT
# B10: UUGGGAG (DNA:RNA)
# RNA: B3 RNA with C25U, C26U, U27G, U28G, U29G, U30A
# DNA 1: CAATCTGAATTCCGGTCTCCC
# DNA 2: TGGTGGCTACGACGGGATT
# B11: GCUUGAA (DNA:RNA)
# RNA: B3 RNA with C25G, U29G, U30A, G31A
# DNA 1: CAATCTGAATTCCGGTCTCCC
# DNA 2: TGGTGGCTACGACGGGATT
# B12: ACAGGCG (DNA:RNA)
# RNA: B3 RNA with C25A, U27A, U28G, U29G, U30C
# DNA 1: CAATCTGAATTCCGGTCTCCC
# DNA 2: TGGTGGCTACGACGGGATT
# B13: GCACGUG (DNA:RNA)
# RNA: B3 RNA with C25G, U27A, U28C, U29G
# DNA 1: CAATCTGAATTCCGGTCTCCC
# DNA 2: TGGTGGCTACGACGGGATT
# B14: CCCCUAU (DNA:RNA)
# RNA: B3 RNA with U27C, U28C, U30A, G31U
# DNA 1: CAATCTGAATTCCGGTCTCCC
# DNA 2: TGGTGGCTACGACGGGATT
# B15: GACCUUA (DNA:RNA)
# RNA: B1 RNA with G27C, A29U, C30U, U31A
# DNA 1: CAATCTGAATTCCGGTCTCCC
# DNA 2: TGGTGGCTACGACGGGATT
# B16: GGACGUC (DNA:RNA)
# RNA: B1 RNA with A26G, G27A, A29G, C30U, U31C
# DNA 1: CAATCTGAATTCCGGTCTCCC
# DNA 2: TGGTGGCTACGACGGGATT
# B17: GCGCUUC (DNA:RNA)
# RNA: B3 RNA with C25G, U27G, U28C, G31C
# DNA 1: CAATCTGAATTCCGGTCTCCC
# DNA 2: TGGTGGCTACGACGGGATT
# B18: UCCACCU (DNA:RNA)
# RNA: B1 RNA with G25U, A26C, G27C, C28A, A29C
# DNA 1: CAATCTGAATTCCGGTCTCCC
# DNA 2: TGGTGGCTACGACGGGATT
# B19: ACCGUUA (DNA:RNA)
# RNA: B3 RNA with C25A, U27C, U28G, G31A
# DNA 1: CAATCTGAATTCCGGTCTCCC
# DNA 2: TGGTGGCTACGACGGGATT
# B20: UGGGUGC (DNA:RNA)
# RNA: B3 RNA with C25U, C26G, U27G, U28G, U30G, G31C
# DNA 1: CAATCTGAATTCCGGTCTCCC
# DNA 2: TGGTGGCTACGACGGGATT
# B21: ACCACAC (DNA:RNA)
# RNA: B3 RNA with C25A, U27C, U28A, U29C, U30A, G31C
# DNA 1: CAATCTGAATTCCGGTCTCCC
# DNA 2: TGGTGGCTACGACGGGATT
# B22: GCCCAUU (DNA:RNA)
# RNA: B1 RNA with A26C, G27C, C30U
# DNA 1: CAATCTGAATTCCGGTCTCCC
# DNA 2: TGGTGGCTACGACGGGATT
# B23: ACGACAU (DNA:RNA)
# RNA: B1 RNA with G25A, A26C, C28A, A29C, C30A
# DNA 1: CAATCTGAATTCCGGTCTCCC
# DNA 2: TGGTGGCTACGACGGGATT
# B24: AUCUGCC (DNA:RNA)
# RNA: B3 RNA with C25A, C26U, U27C, U29G, U30C, G31C
# DNA 1: CAATCTGAATTCCGGTCTCCC
# DNA 2: TGGTGGCTACGACGGGATT
# B25: GGCACUG (DNA:RNA)
# RNA: B3 RNA with C25G, C26G, U27C, U28A, U29C
# DNA 1: CAATCTGAATTCCGGTCTCCC
# DNA 2: TGGTGGCTACGACGGGATT
# B26: AGAUACG (DNA:RNA)
# RNA: B3 RNA with C25A, C26G, U27A, U29A, U30C
# DNA 1: CAATCTGAATTCCGGTCTCCC
# DNA 2: TGGTGGCTACGACGGGATT
# B27: ACAUUUG (DNA:RNA)
# RNA: B3 RNA with C25A, U27A
# DNA 1: CAATCTGAATTCCGGTCTCCC
# DNA 2: TGGTGGCTACGACGGGATT
# B28: GCUGCAG (DNA:RNA)
# RNA: B3 RNA with C25G, U28G, U29C, U30A
# DNA 1: CAATCTGAATTCCGGTCTCCC
# DNA 2: TGGTGGCTACGACGGGATT
# B29: GUUCUUU (DNA:RNA)
# RNA: B3 RNA with C25G, C26U, U28C, G31U
# DNA 1: CAATCTGAATTCCGGTCTCCC
# DNA 2: TGGTGGCTACGACGGGATT
# B30: CUCGAAG (DNA:RNA)
# RNA: B3 RNA with C26U, U27C, U28G, U29A, U30A
# DNA 1: CAATCTGAATTCCGGTCTCCC
# DNA 2: TGGTGGCTACGACGGGATT
# B31: UCGCUCU (DNA:RNA)
# RNA: B1 RNA with G25U, A26C, A29U
# DNA 1: CAATCTGAATTCCGGTCTCCC
# DNA 2: TGGTGGCTACGACGGGATT
# Target: T1, RBFOX1 RRM
# Experiment: EMSA; HiTS-Eq, 1 nM pool, 10 min; buffer printed only for the single-RNA assays: 10 mM Tris pH 7.5, 150 mM NaCl, 3.4 mM EDTA, 0.001% NP-40, 30 C
# Conditions: tags: His6 N-terminal (pET28a); label: 5' 32P
# Summary of the method: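 These values rest on relative association constants, computed from read-count changes of each RNA species versus the control reaction and normalised to the cognate motif. Reads came from free RNA recovered by 8% native PAGE after purified RbFox RRM (wild type or mutant) at increasing concentrations was equilibrated for 10 min in 50 µL with 1 nM of a 5′-radiolabelled pool with 7 randomized nucleotides and DNA-annealed flanks.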
row,Binder,binding signal
1,B1,0.0122 KA relative to UGCAUGU
2,B2,0.0139 KA relative to UGCAUGU
3,B3,0.0132 KA relative to UGCAUGU
4,B4,0.0131 KA relative to UGCAUGU
5,B5,0.00851 KA relative to UGCAUGU
6,B6,0.0143 KA relative to UGCAUGU
7,B7,0.00113 KA relative to UGCAUGU
8,B8,0.021 KA relative to UGCAUGU
9,B9,0.00131 KA relative to UGCAUGU
10,B10,0.0104 KA relative to UGCAUGU
11,B11,0.0288 KA relative to UGCAUGU
12,B12,0.00856 KA relative to UGCAUGU
13,B13,0.0821 KA relative to UGCAUGU
14,B14,0.00285 KA relative to UGCAUGU
15,B15,0.00432 KA relative to UGCAUGU
16,B16,0.0278 KA relative to UGCAUGU

row,Binder,binding signal
1,B17,0.0175 KA relative to UGCAUGU
2,B18,0.00394 KA relative to UGCAUGU
3,B19,0.00138 KA relative to UGCAUGU
4,B20,0.0429 KA relative to UGCAUGU
5,B21,0.000544 KA relative to UGCAUGU
6,B22,0.00484 KA relative to UGCAUGU
7,B23,0.00295 KA relative to UGCAUGU
8,B24,0.012 KA relative to UGCAUGU
9,B25,0.0143 KA relative to UGCAUGU
10,B26,0.00918 KA relative to UGCAUGU
11,B27,0.00773 KA relative to UGCAUGU
12,B28,0.0212 KA relative to UGCAUGU
13,B29,0.0158 KA relative to UGCAUGU
14,B30,0.00771 KA relative to UGCAUGU
15,B31,0.0119 KA relative to UGCAUGU
